# In the supplement of paper PMC3334620:
# Whole data set: some 33,000 sequences, median “E-score (-0.5 to 0.5)” near -0.011, cut for the highest 2% near 0.28. This is one part of the list.
# Molecular target: T1, Gcr1 (UniProt P07261)
# T1 sequence: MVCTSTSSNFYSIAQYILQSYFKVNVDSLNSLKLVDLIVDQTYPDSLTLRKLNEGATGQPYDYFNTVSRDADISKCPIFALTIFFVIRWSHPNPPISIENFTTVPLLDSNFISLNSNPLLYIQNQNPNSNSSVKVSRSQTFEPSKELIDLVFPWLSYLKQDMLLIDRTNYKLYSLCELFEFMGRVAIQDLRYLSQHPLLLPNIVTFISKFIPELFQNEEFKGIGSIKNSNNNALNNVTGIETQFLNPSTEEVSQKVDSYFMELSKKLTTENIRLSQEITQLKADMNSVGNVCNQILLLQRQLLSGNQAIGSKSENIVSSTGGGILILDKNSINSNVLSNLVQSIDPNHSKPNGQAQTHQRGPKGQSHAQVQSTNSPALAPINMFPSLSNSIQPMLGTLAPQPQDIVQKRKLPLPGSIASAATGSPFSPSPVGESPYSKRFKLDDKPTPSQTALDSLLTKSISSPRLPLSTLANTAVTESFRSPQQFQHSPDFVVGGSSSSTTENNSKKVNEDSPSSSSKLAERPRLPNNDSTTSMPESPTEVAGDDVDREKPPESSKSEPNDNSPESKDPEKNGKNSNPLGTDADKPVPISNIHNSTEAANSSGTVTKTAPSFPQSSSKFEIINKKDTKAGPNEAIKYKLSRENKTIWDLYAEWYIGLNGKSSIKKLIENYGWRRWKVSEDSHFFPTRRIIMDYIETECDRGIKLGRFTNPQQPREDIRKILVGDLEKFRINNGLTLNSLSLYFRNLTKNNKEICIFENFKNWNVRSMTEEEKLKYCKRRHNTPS
# Experiment: PBM E-score (8-mer binding enrichment) (E-score (-0.5 to 0.5)); higher = stronger / more preferred TF binding; most listed sequences are background and not binding sites
# Conditions: protein concentration: 100 nM; construct: GST-full length
# Protocol: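 Universal 'all 10-mer' protein binding microarrays (Agilent AMADID 015681) probed with GST-tagged S. cerevisiae TFs (full-length or DBD) made by in vitro transcription/translation (PURExpress), about 100-200 nM. Bound TF was detected with fluorescent anti-GST. Each ungapped 8-mer (which stands for itself and its reverse complement) is scored by the PBM enrichment score (E-score), a modified Wilcoxon-Mann-Whitney statistic from -0.5 to +0.5, computed with the Universal PBM Analysis Suite. Scale: above 0.35 generally sequence-specific binding.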
row,Sequence,PBM E-score
1,AGGAGTAT,0.0247
2,CGGCCCTC,-0.282
3,GGGATCAC,-0.137
4,AGTAACGG,-0.0621
5,CCCGACGC,0.0883
6,ATCTTCTG,0.136
7,CGCAGACC,-0.203
8,AGATAGCC,-0.2
9,GGACCGAC,-0.135
10,CACAGTGG,0.155
11,CAGAATTC,0.0715
12,CCCGATCA,-0.216
13,AACCCACA,0.067
14,AAGAAGAC,0.0399
15,AACATGGA,0.103
16,GACCTGGC,-0.144
17,GGGATAGA,-0.035
18,GATGTGCC,-0.203
19,CTTACAAC,-0.0915
20,CTGAGCAG,-0.0367
21,GATCCAAC,0.0768
22,CGTTTACC,-0.121

row,Sequence,PBM E-score
1,CCCTATAG,-0.0288
2,GTAGTAAC,0.0219
3,AACGCCGC,0.123
4,ACTGGGGG,-0.0577
5,GTTCGAGA,-0.0243
6,ATAAAGCC,-0.0798
7,AATTGCGG,-0.065
8,CACAAGGA,0.119
9,CTATTCTA,-0.0324
10,AGAATATG,0.113
11,GCCGTCAC,-0.0324
12,GCGACGCC,0.23
13,CGGGTGAC,-0.0558
14,AACTTCCT,0.376
15,CAGTAGAA,0.138
16,ATCAGGGC,-0.25
17,CCCGGAGA,-0.242
18,CGTGAAAA,-0.0241
19,GCTGACGA,0.0127
20,GCGTGCGA,-0.0728
21,GTGCTGCA,-0.0263
22,GGAGGAAA,-0.318

row,Sequence,PBM E-score
1,CGATAGGC,-0.0212
2,CTTCATCA,-0.0741
3,AATTCCCG,0.194
4,AATGATGG,0.109
5,CAGAACTC,-0.0208
6,AGGGACTA,-0.126
7,ATGGTGAC,-0.0252
8,ACATACAC,0.13
9,AGGTATCC,0.28
10,GATAACAC,-0.12
11,CAAGAATG,0.117
12,CAATGTTA,0.0869
13,CGGGACAC,0.124
14,TATACATA,0.0411
15,CGAAGCAC,-0.135
16,ACAGCACT,-0.252
17,AAAACTGG,0.254
18,ACCTCGCC,-0.328
19,GGCTGTTA,-0.126
20,GTAGAACA,-0.0278
21,GGCGACCA,0.205
22,CACACAAG,0.128

row,Sequence,PBM E-score
1,GCTTTCTA,-0.196
2,AACTAATT,0.023
3,CGTCGTTA,0.13
4,CCAGTGTA,0.156
5,GCTTTAGA,-0.0822
6,AGGATATA,0.121
7,AATAGCCT,-0.124
8,ACAGCATG,-0.219
9,ACTGCATG,-0.0346
10,TCAGTTAA,0.0422
11,TGGAGACA,0.107
12,GTCGGACA,0.00135
13,CACACATC,-0.0508
14,CCATCTGA,0.106
15,CAAGCAAA,-0.185
16,TTCAAAAA,0.0814
17,TAAGCTTA,-0.244
18,CCTGGATA,0.0822
19,ATGCCCGG,0.0443
20,AAAATCCT,-0.0139
21,GTATGCAC,-0.248
22,CACTTTTC,0.032

row,Sequence,PBM E-score
1,GATCGGCC,-0.0306
2,ATCCTTTG,0.12
3,CCGCCGCG,0.136
4,ACCTTTTA,0.28
5,CCTGCCGC,-0.0896
6,TCGGTAAA,-0.0138
7,GATTGTGC,-0.244
8,ACATCGCG,-0.069
9,TAAGTTAA,-0.0129
10,CGTCAACG,-0.0661
11,ACCAGCTC,-0.149
12,GAAAAATA,-0.00613
13,AAGGACAT,-0.126
14,GCTGCCAC,0.301
15,AGTCTCCG,-0.0241
16,ACTGACGA,0.0846
17,AGATACTC,0.125
18,ACAGGCCG,0.0882
19,TGGTGGAA,0.124
20,AACACTCA,-0.0249
21,AGGAGCCA,0.214
22,GCAGTGTA,-0.206
